Measurements taken from ChEMBL document CHEMBL4038348 (J Med Chem, 2017).

What was measured:
physchem = settings: octanol/water, pH 7.4
[1] = target: T1, High affinity cAMP-specific and IBMX-insensitive 3',5'-cyclic phosphodiesterase 8A (Homo sapiens, UniProt O60658)
[2] = target: Rod cGMP-specific 3',5'-cyclic phosphodiesterase alpha/beta (Homo sapiens, UniProt P16499+P35913)
[3] = target: cGMP-specific 3',5'-cyclic phosphodiesterase (Homo sapiens, UniProt O76074); test: biochemical
[4] = target: Dual specificity calcium/calmodulin-dependent 3',5'-cyclic nucleotide phosphodiesterase 1A (Homo sapiens, UniProt P54750)
[5] = target: T2, 3',5'-cyclic-AMP phosphodiesterase 4D (Homo sapiens, UniProt Q08499)
[6] = target: T3, Dual 3',5'-cyclic-AMP and -GMP phosphodiesterase 11A (Homo sapiens, UniProt Q9HCR9); test: biochemical
[7] = target: cGMP-inhibited 3',5'-cyclic phosphodiesterase 3A (Homo sapiens, UniProt Q14432)
[8] = target: T4, 3',5'-cyclic-AMP phosphodiesterase 7B (Homo sapiens, UniProt Q9NP56)
[9] = target: T5, High affinity cGMP-specific 3',5'-cyclic phosphodiesterase 9A (Homo sapiens, UniProt O76083); test: biochemical
[10] = target: T6, cAMP and cAMP-inhibited cGMP 3',5'-cyclic phosphodiesterase 10A (Homo sapiens, UniProt Q9Y233)
[11] = target: T4, 3',5'-cyclic-AMP phosphodiesterase 7B; remark: listed apart in the source
[12] = target: T3, Dual 3',5'-cyclic-AMP and -GMP phosphodiesterase 11A
[13] = target: T2, 3',5'-cyclic-AMP phosphodiesterase 4D; remark: listed apart in the source
[14] = target: T1, High affinity cAMP-specific and IBMX-insensitive 3',5'-cyclic phosphodiesterase 8A; remark: listed apart in the source
[15] = target: Rod cGMP-specific 3',5'-cyclic phosphodiesterase alpha/beta (Homo sapiens, UniProt P35913+P16499)
[16] = target: T6, cAMP and cAMP-inhibited cGMP 3',5'-cyclic phosphodiesterase 10A; remark: listed apart in the source
[17] = target: T5, High affinity cGMP-specific 3',5'-cyclic phosphodiesterase 9A
in vivo [18] = settings: Crl:CD(SD) IGS, rat
in vivo [19] = settings: ICR, mouse
in vivo [20] = settings: ICR, mouse, po, 1 mg/kg
in vivo [21] = settings: ICR, mouse, po, 1 mg/kg; remark: listed apart in the source
in vivo [22] = settings: ICR, mouse, iv
in vivo [23] = settings: ICR, mouse, po, 1 mg/kg; remark: listed apart in the source
in vivo [24] = settings: Sprague-Dawley, rat, brain, po, 10 mg/kg
in vivo [25] = settings: Crl:CD(SD) IGS, rat, iv
in vivo [26] = settings: ICR, mouse, iv; remark: listed apart in the source
in vivo [27] = settings: Crl:CD(SD) IGS, rat, po, 1 mg/kg
in vivo [28] = settings: Crl:CD(SD) IGS, rat, iv; remark: listed apart in the source
in vivo [29] = settings: Crl:CD(SD) IGS, rat, po, 1 mg/kg; remark: listed apart in the source
in vivo [30] = settings: ICR, mouse, brain, po, 10 mg/kg
in vivo [31] = settings: Crl:CD(SD) IGS, rat, po, 1 mg/kg; remark: listed apart in the source

T2 sequence (Q08499 whole entry): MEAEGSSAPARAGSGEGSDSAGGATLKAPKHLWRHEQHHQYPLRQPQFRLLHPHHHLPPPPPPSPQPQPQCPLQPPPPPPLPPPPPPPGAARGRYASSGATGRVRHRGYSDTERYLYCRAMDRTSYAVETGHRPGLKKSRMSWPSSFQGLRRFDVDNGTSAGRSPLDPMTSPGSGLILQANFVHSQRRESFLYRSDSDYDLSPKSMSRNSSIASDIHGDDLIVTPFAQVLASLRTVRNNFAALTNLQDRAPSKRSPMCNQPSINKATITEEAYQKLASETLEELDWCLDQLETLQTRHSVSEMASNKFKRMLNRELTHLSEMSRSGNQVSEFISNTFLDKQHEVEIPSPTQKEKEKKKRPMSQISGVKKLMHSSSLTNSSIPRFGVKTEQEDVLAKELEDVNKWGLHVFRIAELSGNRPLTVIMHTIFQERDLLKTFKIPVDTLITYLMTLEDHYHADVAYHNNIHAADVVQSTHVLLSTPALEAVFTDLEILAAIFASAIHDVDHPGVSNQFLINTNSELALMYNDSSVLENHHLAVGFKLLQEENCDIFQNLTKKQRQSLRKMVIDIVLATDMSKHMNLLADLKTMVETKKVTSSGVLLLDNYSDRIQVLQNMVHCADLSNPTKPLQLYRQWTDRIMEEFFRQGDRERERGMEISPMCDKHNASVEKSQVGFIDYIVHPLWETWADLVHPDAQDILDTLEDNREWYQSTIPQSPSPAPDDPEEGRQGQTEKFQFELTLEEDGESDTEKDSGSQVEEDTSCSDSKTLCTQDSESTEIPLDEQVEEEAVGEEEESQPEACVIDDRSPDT
Chain of cGMP-inhibited 3',5'-cyclic phosphodiesterase 3A (Q14432 whole entry): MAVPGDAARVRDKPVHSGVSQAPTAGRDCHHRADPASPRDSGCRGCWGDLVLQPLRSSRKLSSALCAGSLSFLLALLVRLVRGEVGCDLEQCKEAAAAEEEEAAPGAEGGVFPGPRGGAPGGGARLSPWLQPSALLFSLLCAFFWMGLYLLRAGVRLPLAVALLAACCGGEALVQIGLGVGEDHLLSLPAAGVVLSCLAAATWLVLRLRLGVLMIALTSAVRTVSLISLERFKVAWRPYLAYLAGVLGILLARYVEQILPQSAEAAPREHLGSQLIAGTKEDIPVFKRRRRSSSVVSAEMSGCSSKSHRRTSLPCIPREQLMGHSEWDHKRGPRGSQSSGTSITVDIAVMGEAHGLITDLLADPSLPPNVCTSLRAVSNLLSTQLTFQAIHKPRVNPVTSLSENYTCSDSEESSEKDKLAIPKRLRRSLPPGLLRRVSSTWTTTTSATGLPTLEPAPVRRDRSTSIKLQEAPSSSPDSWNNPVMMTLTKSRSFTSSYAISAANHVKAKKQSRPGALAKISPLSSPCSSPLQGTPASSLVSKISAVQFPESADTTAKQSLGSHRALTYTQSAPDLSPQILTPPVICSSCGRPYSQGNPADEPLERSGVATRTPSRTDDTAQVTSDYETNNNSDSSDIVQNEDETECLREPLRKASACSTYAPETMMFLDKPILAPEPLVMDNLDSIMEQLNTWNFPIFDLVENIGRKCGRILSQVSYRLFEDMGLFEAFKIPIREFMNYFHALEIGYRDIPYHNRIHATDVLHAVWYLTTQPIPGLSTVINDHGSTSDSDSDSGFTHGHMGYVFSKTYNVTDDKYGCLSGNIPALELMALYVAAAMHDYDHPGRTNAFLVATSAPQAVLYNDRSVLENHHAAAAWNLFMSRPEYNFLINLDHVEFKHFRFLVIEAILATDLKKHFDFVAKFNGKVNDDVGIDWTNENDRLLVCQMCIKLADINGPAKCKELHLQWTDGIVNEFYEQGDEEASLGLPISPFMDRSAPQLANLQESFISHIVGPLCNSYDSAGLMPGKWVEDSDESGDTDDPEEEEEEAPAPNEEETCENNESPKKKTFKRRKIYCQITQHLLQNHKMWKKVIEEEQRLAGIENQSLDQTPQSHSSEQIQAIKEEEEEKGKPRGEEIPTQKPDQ
T3 sequence (Q9HCR9 whole entry): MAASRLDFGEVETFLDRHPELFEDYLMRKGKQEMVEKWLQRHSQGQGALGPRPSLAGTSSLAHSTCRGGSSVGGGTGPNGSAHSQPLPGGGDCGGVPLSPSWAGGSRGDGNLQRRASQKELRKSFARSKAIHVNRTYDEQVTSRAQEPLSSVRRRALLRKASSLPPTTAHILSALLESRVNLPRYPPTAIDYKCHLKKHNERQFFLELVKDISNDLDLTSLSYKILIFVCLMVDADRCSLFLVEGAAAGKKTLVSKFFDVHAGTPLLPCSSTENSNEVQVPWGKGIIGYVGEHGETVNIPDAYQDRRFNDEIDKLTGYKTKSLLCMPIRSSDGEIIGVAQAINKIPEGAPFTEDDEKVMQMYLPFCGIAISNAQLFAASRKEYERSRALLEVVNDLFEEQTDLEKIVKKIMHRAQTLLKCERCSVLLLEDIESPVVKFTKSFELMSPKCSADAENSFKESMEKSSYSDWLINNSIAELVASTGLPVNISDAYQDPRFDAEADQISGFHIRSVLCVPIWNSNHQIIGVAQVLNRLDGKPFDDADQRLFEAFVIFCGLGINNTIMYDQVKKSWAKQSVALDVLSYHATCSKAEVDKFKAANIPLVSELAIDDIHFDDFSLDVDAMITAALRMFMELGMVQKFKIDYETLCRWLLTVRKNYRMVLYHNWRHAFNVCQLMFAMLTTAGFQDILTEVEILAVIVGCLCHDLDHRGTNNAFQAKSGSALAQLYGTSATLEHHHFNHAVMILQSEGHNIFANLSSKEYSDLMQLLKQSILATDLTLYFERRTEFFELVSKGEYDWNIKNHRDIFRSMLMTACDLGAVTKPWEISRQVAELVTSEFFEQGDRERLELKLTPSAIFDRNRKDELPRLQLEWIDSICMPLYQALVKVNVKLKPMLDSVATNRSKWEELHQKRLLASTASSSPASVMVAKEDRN
T1 sequence (O60658 whole entry): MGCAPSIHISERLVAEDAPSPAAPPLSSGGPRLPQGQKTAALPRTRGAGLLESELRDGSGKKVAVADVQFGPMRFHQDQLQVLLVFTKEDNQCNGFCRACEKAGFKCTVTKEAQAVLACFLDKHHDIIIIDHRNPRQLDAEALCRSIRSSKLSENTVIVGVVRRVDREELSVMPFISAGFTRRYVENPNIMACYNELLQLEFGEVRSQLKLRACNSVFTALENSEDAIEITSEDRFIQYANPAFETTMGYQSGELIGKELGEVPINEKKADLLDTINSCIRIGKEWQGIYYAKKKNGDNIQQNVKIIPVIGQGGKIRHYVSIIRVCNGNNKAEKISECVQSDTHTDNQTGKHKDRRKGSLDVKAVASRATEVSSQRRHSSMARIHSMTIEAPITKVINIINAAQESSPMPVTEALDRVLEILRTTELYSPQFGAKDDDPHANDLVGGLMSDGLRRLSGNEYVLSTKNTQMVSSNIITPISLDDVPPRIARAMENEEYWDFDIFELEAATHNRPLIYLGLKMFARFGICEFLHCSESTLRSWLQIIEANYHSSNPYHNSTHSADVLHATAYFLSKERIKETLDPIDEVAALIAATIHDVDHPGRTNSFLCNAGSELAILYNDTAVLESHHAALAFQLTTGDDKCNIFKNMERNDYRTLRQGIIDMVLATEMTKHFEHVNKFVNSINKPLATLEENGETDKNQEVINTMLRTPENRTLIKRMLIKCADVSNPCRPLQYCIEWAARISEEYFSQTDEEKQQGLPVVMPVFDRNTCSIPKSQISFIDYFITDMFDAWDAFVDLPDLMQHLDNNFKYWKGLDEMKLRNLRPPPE
T6 sequence (Q9Y233 whole entry): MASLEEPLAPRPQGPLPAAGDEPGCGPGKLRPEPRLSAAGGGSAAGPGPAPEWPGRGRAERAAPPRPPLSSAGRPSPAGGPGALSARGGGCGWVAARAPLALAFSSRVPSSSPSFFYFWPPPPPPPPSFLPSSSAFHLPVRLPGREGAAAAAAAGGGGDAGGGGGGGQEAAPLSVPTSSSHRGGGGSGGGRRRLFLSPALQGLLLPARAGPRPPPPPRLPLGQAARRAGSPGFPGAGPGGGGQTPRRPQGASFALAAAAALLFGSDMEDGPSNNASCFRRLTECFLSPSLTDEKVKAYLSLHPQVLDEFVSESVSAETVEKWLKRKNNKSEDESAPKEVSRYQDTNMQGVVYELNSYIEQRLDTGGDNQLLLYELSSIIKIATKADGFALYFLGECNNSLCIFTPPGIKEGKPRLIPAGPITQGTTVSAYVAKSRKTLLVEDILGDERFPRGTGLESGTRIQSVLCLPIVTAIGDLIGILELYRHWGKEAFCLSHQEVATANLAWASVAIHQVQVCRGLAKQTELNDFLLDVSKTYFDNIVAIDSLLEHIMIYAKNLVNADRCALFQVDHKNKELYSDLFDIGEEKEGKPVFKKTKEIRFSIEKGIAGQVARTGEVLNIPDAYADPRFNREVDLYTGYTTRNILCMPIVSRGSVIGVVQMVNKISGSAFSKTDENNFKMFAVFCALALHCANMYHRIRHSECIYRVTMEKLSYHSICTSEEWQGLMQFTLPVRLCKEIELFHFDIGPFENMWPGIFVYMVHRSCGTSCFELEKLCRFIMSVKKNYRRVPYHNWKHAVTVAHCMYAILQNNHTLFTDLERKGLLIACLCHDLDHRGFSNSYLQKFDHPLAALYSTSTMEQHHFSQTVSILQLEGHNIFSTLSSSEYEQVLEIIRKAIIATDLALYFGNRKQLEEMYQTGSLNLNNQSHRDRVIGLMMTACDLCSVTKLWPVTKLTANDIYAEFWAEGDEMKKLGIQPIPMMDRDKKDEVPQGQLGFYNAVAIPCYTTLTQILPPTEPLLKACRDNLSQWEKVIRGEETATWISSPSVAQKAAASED

CCCC(NC(=O)N1CC(=O)Nc2cccnc21)c1ccc(OC(F)(F)F)cc1 (stereo unspecified)
logD (physchem): 4.05

COCC(NC(=O)N1CC(=O)Nc2c(C)ccnc21)c1ccc(OC(F)(F)F)cc1 (stereo unspecified)
logD (physchem): 3.16

COCC(NC(=O)N1CC(=O)Nc2cc(OC)cnc21)c1ccc(OC(F)(F)F)cc1 (stereo unspecified)
logD (physchem): 3.2

CC(C)(O)C(NC(=O)N1CC(=O)Nc2cccnc21)c1ccc(OC(F)(F)F)cc1 (stereo unspecified)
logD (physchem): 2.54

CCC(NC(=O)N1CC(=O)Nc2cccnc21)c1ccc(OC(F)(F)F)cc1F (stereo unspecified)
logD (physchem): 3.83

CCC(NC(=O)N1CC(=O)Nc2cccnc21)c1ccc(OC)cc1 (stereo unspecified)
logD (physchem): 2.78

COCC(NC(=O)N1CC(=O)Nc2cc(C3CC3)cnc21)c1ccc(OC(F)(F)F)cc1 (stereo unspecified)
logD (physchem): 3.85

CCC(NC(=O)N1CC(=O)Nc2cccnc21)c1ccc(C(F)(F)F)cc1 (stereo unspecified)
logD (physchem): 3.45

CCC(NC(=O)N1CC(=O)Nc2cccnc21)c1ccc(OC(F)(F)F)c(F)c1 (stereo unspecified)
logD (physchem): 3.67

COCCC(NC(=O)N1CC(=O)Nc2cccnc21)c1ccc(OC(F)(F)F)cc1 (stereo unspecified)
logD (physchem): 3.09

COCC(NC(=O)N1CC(=O)Nc2ccc(C)nc21)c1ccc(OC(F)(F)F)cc1 (stereo unspecified)
logD (physchem): 3.38

COCC(NC(=O)N1CC(=O)Nc2cc(C)cnc21)c1ccc(OC(F)(F)F)cc1 (stereo unspecified)
logD (physchem): 3.35

COCC(NC(=O)N1CC(=O)Nc2cc(OC(C)C)cnc21)c1ccc(OC(F)(F)F)cc1 (stereo unspecified)
logD (physchem): 3.94

O=C1CN(C(=O)NC(CO)c2ccc(OC(F)(F)F)cc2)c2ncccc2N1 (stereo unspecified)
logD (physchem): 2.16

COCC(NC(=O)N1CC(=O)Nc2cc(Cl)cnc21)c1ccc(OC(F)(F)F)cc1 (stereo unspecified)
logD (physchem): 3.74

CCC(NC(=O)N1CC(=O)Nc2cccnc21)c1ccc(C2CC2)cc1 (stereo unspecified)
logD (physchem): 3.75

CS(=O)(=O)CC(NC(=O)N1CC(=O)Nc2cccnc21)c1ccc(OC(F)(F)F)cc1 (stereo unspecified)
logD (physchem): 1.91

COCC(NC(=O)N1CC(=O)Nc2cccnc21)c1ccc(OC(F)(F)F)cc1 (stereo unspecified)
logD (physchem): 2.95

COC[C@@H](NC(=O)N1CC(=O)Nc2cc(OC)cnc21)c1ccc(OC(F)(F)F)cc1
logD (physchem): 3.19

CCC(NC(=O)N1CC(=O)Nc2cccnc21)c1ccccc1OC(F)(F)F (stereo unspecified)
logD (physchem): 3.52

CCC(NC(=O)N1CC(=O)Nc2cccnc21)c1ccc(OC(F)(F)F)cc1 (racemic)
IC50 [1]: > 10 µM
IC50 [2]: > 10 µM
IC50 [3]: 9.8 µM
IC50 [4]: 3.2 µM
IC50 [5]: > 10 µM
IC50 [6]: > 10 µM
logD (physchem): 3.61
IC50 [7]: 8.1 µM
IC50 [8]: > 10 µM
IC50 [9]: > 10 µM
IC50 [10]: > 10 µM

CCC(NC(=O)N1CC(=O)Nc2cccnc21)c1ccc(OC(F)(F)F)cc1 (stereo in doubt; 6a)
IC50 [11]: > 10 µM
IC50 [12]: > 10 µM
IC50 [3]: > 10 µM
IC50 [13]: > 10 µM
IC50 [14]: > 10 µM
IC50 [15]: > 10 µM
IC50 [4]: 2 µM
IC50 [7]: 4.2 µM
IC50 [16]: > 10 µM
IC50 [17]: > 10 µM

COC[C@@H](NC(=O)N1CC(=O)Nc2cc(OC)cnc21)c1ccc(OC(F)(F)F)c(F)c1 [TAK-915]
IC50 [1]: > 30 µM
AUC(0-t) (in vivo [18]): 242 ng·h/mL
AUC(0-t) (in vivo [19]): 1080 ng·h/mL
IC50 [2]: > 30 µM
Cmax at 8 h (in vivo [20]): 201 ng/mL
bioavailability at 8 h (in vivo [21]): 55.6%
IC50 [3]: > 30 µM
IC50 [4]: 2.5 µM
IC50 [5]: 14.9 µM
Vd at 8 h (in vivo [22]): 1.6 L/kg
IC50 [6]: > 30 µM
logD (physchem): 3.32
IC50 [7]: > 30 µM
Tmax at 8 h (in vivo [23]): 1.7 h
Kp at 2 h (in vivo [24]): 1.01
Vd at 8 h (in vivo [25]): 3.43 L/kg
IC50 [8]: > 30 µM
clearance at 8 h (in vivo [26]): 8.6 mL/min/kg
Tmax at 8 h (in vivo [27]): 1.7 h
clearance at 8 h (in vivo [28]): 39.3 mL/min/kg
Cmax at 8 h (in vivo [29]): 64.2 ng/mL
IC50 [9]: > 30 µM
IC50 [10]: > 30 µM
Kp at 2 h (in vivo [30]): 0.91
bioavailability at 8 h (in vivo [31]): 56.7%
